PubChem BioAssay AID360 (National Center for Advancing Translational Sciences (NCATS), 2006)
The whole screen tested about 48,000 compounds, of which about 550 (1.1%) were called active. Another 4% or so got no clear call; they are omitted. Rule as the data show it: active = potency below about 15 µM; inconclusive = mostly about 16 µM to 33 µM; inactive = weaker than that. The list shows a part of the results.

biological target: Lysosomal acid glucosylceramidase (Homo sapiens) (UniProt P04062); assay: Glucocerebrosidase; conditions: purified enzyme, resorufin glucoside fluorescence (screen aimed at inhibitors), 20 min;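 also: the screen sought inhibitors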
Chain of UniProt P04062 (P04062 whole entry, looked up): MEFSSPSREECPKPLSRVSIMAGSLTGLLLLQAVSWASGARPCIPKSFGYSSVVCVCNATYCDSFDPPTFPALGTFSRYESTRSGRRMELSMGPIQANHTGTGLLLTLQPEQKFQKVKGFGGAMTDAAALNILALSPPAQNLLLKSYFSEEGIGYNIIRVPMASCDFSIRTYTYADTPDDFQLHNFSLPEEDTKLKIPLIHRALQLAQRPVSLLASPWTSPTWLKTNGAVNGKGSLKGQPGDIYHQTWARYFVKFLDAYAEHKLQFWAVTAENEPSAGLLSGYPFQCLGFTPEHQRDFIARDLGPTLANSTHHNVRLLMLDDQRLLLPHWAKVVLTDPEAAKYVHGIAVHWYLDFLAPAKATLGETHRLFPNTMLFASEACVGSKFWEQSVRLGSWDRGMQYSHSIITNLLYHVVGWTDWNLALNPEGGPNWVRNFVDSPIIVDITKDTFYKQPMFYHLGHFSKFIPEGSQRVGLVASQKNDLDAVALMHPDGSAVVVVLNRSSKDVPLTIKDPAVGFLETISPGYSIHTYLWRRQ
In short: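 Wild-type enzyme at 0.2 nM final in 50mM citric acid/KH2PO4, 10mM sodium taurocholate, 0.01% tween-20, pH 5.9, with resorufin beta-D-glucopyranoside at 30 uM final. Compounds titrated, 20 min at RT, red fluorescence read; AC50 from titration.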
Potency is read from the fitted curve at half-maximal effect.

Potency, inactive:
CCCCN(CC)CCCNC(=O)c1cc2cc3ccc(OC)cc3nc2o1 > 76.9 µM, COc1ccccc1C1/C(=C(/O)c2ccccc2)C(=O)C(=O)N1CC(C)O (stereo not drawn) > 76.9 µM, CCc1nnc(NC(=O)CSc2nnc(COc3ccccc3)n2Cc2ccccc2)s1 > 76.9 µM, COc1ccc(CNC(=O)C(NS(=O)(=O)c2ccc3c(c2)CCCN3C(C)=O)C(C)C)cc1 (stereo not drawn) > 76.9 µM, CCOc1cc(C)c(C(C)C)cc1S(=O)(=O)n1ccc(C)n1 > 76.9 µM, O=C1c2ccccc2NC(c2ccc(F)cc2)N1Cc1ccco1 (stereo not drawn) > 76.9 µM, COC(=O)c1[nH]c2ccc(C)cc2c1NC(=O)CN1CCN(Cc2ccccc2)CC1 > 76.9 µM, Cn1c(=O)cc(OCCCC(=O)N2CCN(c3ccccc3)CC2)c2ccccc21 > 76.9 µM, COc1cccc(C(=O)OC(C)CN2CCCC2)c1 (stereo not drawn) > 76.9 µM, CN(C)Cc1nc2ccccc2c(=O)n1Cc1nc(C(C)(C)C)cs1 > 76.9 µM, CC(C)(C)n1nnnc1C(c1ccccc1F)N(Cc1ccco1)CC1CCCO1 (stereo not drawn) > 76.9 µM, CC(C)C(=O)Nc1cccc2nsnc12 > 76.9 µM, COc1ccccc1CNC(=O)COC(=O)c1ccc(NC(N)=O)cc1 > 76.9 µM, COCCn1nnnc1CN1CCN(c2cccc(C(F)(F)F)c2)CC1 > 76.9 µM, CCC(C)(C)n1nnnc1C(c1ccncc1)N1CCN(c2cccc(OC)c2)CC1 (stereo not drawn) > 76.9 µM, Cc1cc(N)ccc1NC(=O)c1ccccc1 > 76.9 µM, CCOc1ccc(NCCC(=O)c2ccc3c(c2)OCO3)cc1 > 76.9 µM, O=C(C1=C(O)C(=O)N(CCc2ccccc2)C1c1cccnc1)c1ccco1 (stereo not drawn) > 76.9 µM, O=C(CSc1nnnn1Cc1ccccc1)Nc1ccc2c(c1)OCCO2 > 76.9 µM, O=C(CSCCO)N1CCc2ccccc21 > 76.9 µM, CC(CN1CCCCC1)OC(=O)c1ccc(Cl)cc1Cl (stereo not drawn) > 76.9 µM, COCCNC(=O)C(c1ccccc1C)N(CCOC)C(=O)Cn1nnc2ccccc21 (stereo not drawn) > 76.9 µM, Cc1ccc(N(CC(N)=O)C2SC(=O)NC2=O)cc1 (stereo not drawn) > 76.9 µM, Cn1cnc(S(=O)(=O)NCc2cccs2)c1 > 76.9 µM, CC(=O)Nc1cccc(NC(=O)CSc2nnnn2Cc2ccccc2)c1 > 76.9 µM, COc1cc(-c2ccc(NC(=O)CN3CCCCC3)c(OC)c2)ccc1NC(=O)CN1CCCCC1 > 76.9 µM, Cc1ccccc1C(=O)NC1CCN(Cc2nnnn2Cc2ccccc2)CC1 > 76.9 µM, O=C(CSc1nnnn1-c1ccccc1)N1CCc2ccccc21 > 76.9 µM, CCCn1c(N)c(C(=O)CSc2nnc(-c3ccco3)n2Cc2ccccc2)c(=O)[nH]c1=O, COc1ccc(-c2cc(C(=O)NCc3cccnc3)no2)cc1OC > 76.9 µM, O=C(Nc1ccc(Cl)cn1)C1CCCN1S(=O)(=O)c1ccc(Cl)cc1 (stereo not drawn) > 76.9 µM, COc1ccc(N2CCN(CC(=O)Nc3cc4c(cc3C(C)=O)OCO4)CC2)cc1 > 76.9 µM, Cc1nnc(SCCOC(N)=O)n1C > 76.9 µM, COC(=O)Nc1sc2c(c1C(=O)N1CCOCC1)CCC(C)C2 (stereo not drawn) > 76.9 µM, Cc1ccc(-c2nnc(N3CCN(S(C)(=O)=O)CC3)c3ccccc23)cc1 > 76.9 µM, O=C(CSc1nc(-c2ccccc2)cs1)NCc1ccco1 > 76.9 µM, Cn1c(=O)c2c(nc(N3CCCCCC3)n2Cc2cccc3ccccc23)n(C)c1=O > 76.9 µM, O=C(NCc1cccs1)C1CCCN(c2ncccn2)C1 (stereo not drawn) > 76.9 µM, CCN(CC)CCOC(=O)c1cccc(Br)c1 > 76.9 µM, COc1ccc(-c2cn3c(C)c(C(=O)Nc4cc(NC(C)=O)ccc4OC)sc3n2)cc1 > 76.9 µM, COc1ccccc1-c1nc(S(=O)(=O)c2ccc(Cl)cc2)c(N(C)C)o1 > 76.9 µM, CCC(c1nnnn1Cc1ccco1)N(Cc1ccccc1OC)Cc1cc2cc(C)ccc2[nH]c1=O (stereo not drawn) > 76.9 µM, NC(=O)C1CCN(C(=O)C23CC4CC(CC(C4)C2)C3)CC1 > 76.9 µM, CN=C1SC(C(=O)O)CC(=O)N1C (stereo not drawn) > 76.9 µM, CCC(=NCc1ccccc1)C1=C(O)C(C(=O)OC)C(C)(C)CC1=O (stereo not drawn) > 76.9 µM, Cc1noc(C)c1S(=O)(=O)NCCN1CCN(c2ccccc2)CC1 > 76.9 µM, O=C(CCN1CCOCC1)Nc1ccc2c(c1)N(C(=O)CN1CCOCC1)c1ccccc1CC2 > 76.9 µM, COC(=O)c1ccc(C(=O)OC)c(NC(=O)c2ocnc2C)c1 > 76.9 µM, Cc1cccc2cc(CN(Cc3ccco3)S(=O)(=O)c3ccc4c(c3)OCCO4)c(=O)[nH]c12 > 76.9 µM, COc1ccc2c(c1OC)C(=O)OC2Nn1cncn1 (stereo not drawn) > 76.9 µM, Cc1ccc2nc3c(cc(C#N)c(=O)n3CC3CCCO3)c(=O)n2c1 (stereo not drawn) > 76.9 µM, CCOC(=O)N1CCN(C(=O)C2CC(c3cc(OC)ccc3OC)=NO2)CC1 (stereo not drawn) > 76.9 µM, CSc1ccc(C(C(C(=O)c2cccs2)N2CCOCC2)N2CCOCC2)cc1 (stereo not drawn) > 76.9 µM, CCOC(=O)CC(=O)CSc1ncnc2c1cnn2-c1ccccc1 > 76.9 µM, O=S(=O)(NCc1ccco1)N1CCOCC1 > 76.9 µM, CCOc1cccc(C(=O)N(Cc2ccc(F)cc2)C2CCS(=O)(=O)C2)c1 (stereo not drawn) > 76.9 µM, COc1ccc(NC(=O)Cn2c(C)cc(=O)c3cccc(OC)c32)cc1 > 76.9 µM, COC(=O)Cc1c(C)c2c(OCc3nn[nH]n3)cc(C)cc2oc1=O > 76.9 µM
